# Experimental data reported in ChEMBL document CHEMBL4888484, “Replenishing the malaria drug discovery pipeline: Screening and hit evaluation of the MMV Hit Generation Library 1 (HGL1) against asexual blood stage Plasmodium falciparum ,using a nano luciferase reporter read-out” (2022).
# Hit rate of the full screen: of about 150,000 compounds, about 540 (0.36%) showed an effect of 50% or more. This is one part of the list.
# System: Plasmodium falciparum
# Test: Primary screen in NF54 nanoGlo assay, in single point, at 2uM, 72h; a lower Z score goes with more inhibition
# Assay type: functional, Erythrocyte
# Settings: timepoint 72 hour
SMILES,% Inhibition,Z score
C[C@H](NC(=O)N(C)Cc1noc(C2CCC2)n1)c1ccccc1,-13%,1.68
Cc1cc(=O)cc(C(=O)N2CCC(F)(F)CC2)[nH]1,-4%,0.88
COc1cc(C(=O)NC[C@@]2(c3cnn(C)c3)CCCO2)ccc1F,-11%,1.09
COC(=O)C1CCCCCC1NS(=O)(=O)N(C)C(C)C (stereo not given),-7%,0.76
C=CCN(CC(=O)O)C(=O)c1ccc(Cl)c(C)c1,-9%,0.91
c1ccc(-c2csc(CN3CCC[C@H]3c3nc(C4CC4)no3)n2)cc1,5%,-0.71
O[C@H]1CCCN(Cc2cc3ccc(F)cc3nc2-c2cccc(Cl)c2)C1,-10%,1.4
Cc1n[nH]c2c1CN(S(=O)(=O)c1ccc(-c3c(C)noc3C)s1)CC2,-11%,1.35
CN1C(=O)[C@@]2(NC(=O)c3cnn(-c4ccccc4)c3N2)c2ccccc21,-8%,1.1
CCn1cnnc1-c1nn(C)c2c1CN(C(=O)c1ccc(C)nc1)CC2,-7%,1.34
Cc1cc2n(n1)[C@@H](c1cn(-c3ccccc3)nc1-c1ccccc1)Nc1c(C)cccc1-2,22%,-3.42
O=C(N[C@@H](CCO)C1CCCCC1)C(F)(F)C1(O)CCCCC1,-34%,3.99
CCCN(CCC)C(=O)c1ccc(C)n1C,-14%,2
CC(=O)N[C@@H]1CN(C(=O)Cc2cccc3ccccc23)C[C@H]1CO,-23%,3.96
Cc1ccsc1-c1nnc(CC(=O)N2CCN(c3ccccc3)CC2)o1,3%,-0.33
CCc1nnc(NC(=O)N2CCO[C@@](C)(CC)C2)s1,8%,-0.81
COc1cc(N2CC[S+]([O-])CC2)ncn1,-5%,0.92
O=C1CCC2(CCN(C/C=C/c3ccccc3)CC2)CN1[C@H]1CC[C@H](O)CC1,-1%,0.11
Cc1ccc(CNC(=O)C(=O)Nc2nc3ccccc3s2)cn1,11%,-1.56
Cc1ccc(Cn2c(=O)c3sccc3n(CC(=O)Nc3cc(Cl)cc(Cl)c3)c2=O)cc1C,33%,-3.73
C[C@H](O)CNCc1cc2ccc(F)cc2n(Cc2ccccn2)c1=O,-4%,0.52
Cc1cc(C)c(CN[C@@H](C)CNS(=O)(=O)C2CC2)cn1,5%,-0.45
COc1ccc2c(c1)N(Cc1cncnc1)C[C@H](C)O2,-12%,1.94
CC(C)CN(C)[C@@H](C(=O)O)c1ccc(NC(=O)N2CCCC2)cc1,0%,-0.07
CCC[C@H](C)NC(=O)Nc1nccs1,-8%,1.36
COc1ccc(C(=O)C[n+]2ccn(C)c2)cc1OC,-3%,0.4
CC(NC(=O)c1ccoc1)C(=O)NOC1CCCCO1 (stereo not given),-23%,3.95
Clc1ccc(CNCc2cccnc2-n2cccn2)s1,15%,-1.72

SMILES,% Inhibition,Z score
CCCCNc1ccccc1C(=O)N[C@H]1C[C@@H](O)C1,0%,0.02
CCc1cc(C)nc(N2Cc3c(N)nn(C)c3C2)n1,0%,0.04
COc1cncc(COc2cccc(NC(=O)C(C)C)c2)n1,-6%,0.99
C=C[C@H]1OCCC[C@@H]1NC(=O)N1CCCC(CCO)CC1 (stereo not given in full),7%,-0.96
CCN(CC)C(=O)Cn1cc(C(=O)NCc2ccsc2)nn1,2%,-0.19
O=S(=O)(CCN(C1CCCCCC1)S(=O)(=O)c1ccc(F)cc1)N1CCNCC1,-14%,1.55
Cc1ccccc1CS(=O)(=O)NC(C(C)C)C(C)C,-12%,1.65
CCN1CCC[C@@H]1CNS(=O)(=O)c1cc(-c2ccc(=O)n(-c3c(C)noc3C)n2)ccc1OC,29%,-3.36
O=C(c1ccc(OC(F)F)cn1)N1CCC1,0%,0.04
COCC(=O)N(CC(F)(F)F)c1ccc(Br)cc1,-11%,1.63
C[C@H]1CN(C(=O)c2cnc(C(C)(C)C)s2)CC(C)(C)O1,-5%,0.9
O=C(CCn1c(=O)[nH]c2ccsc2c1=O)NCc1ccccc1,59%,-1.7
Nc1cncc(-c2ccc3c(c2)OCCO3)c1,-19%,1.7
Cc1cc2c(c(C)n1)CC1C(=O)NC(=O)C1C2 (stereo not given),0%,0
COC[C@H]1NC(=O)CC[C@H]1C(=O)NCCC1=CCCCC1,-7%,0.76
CN(C)S(=O)(=O)N[C@H]1CCc2nc(-c3ccc(F)cc3F)cn2C1,-2%,0.24
O=C(CC1(O)CCC1)N[C@H]1CCCC[C@@H]1F,2%,-0.32
CCc1sc(NC(=O)C2CCN(C(=O)c3ccco3)CC2)nc1-c1ccccc1,-5%,0.69
N[C@@H](Cc1c[nH]c2ccccc12)C(=O)N1CCOCC1,11%,-1.47
Cc1nc(CNC(=O)C2(N3CCCCC3)CCCCC2)n[nH]1,4%,-0.62
COCC1CN(C(=O)NC2CC(C)N(Cc3ccccc3)C2)CC(C)O1 (stereo not given),4%,-0.73
Cc1ccccc1N1C[C@@H](c2nc3ccccc3n2CCc2ccccc2)CC1=O,-7%,0.7
CN(C)c1ccccc1NC(=O)c1cc(O)nc2ccccc12,-4%,0.64
CS(=O)(=O)N1CC[C@@H](C(N)=O)Oc2ccc(Cl)cc21,-17%,1.51
COc1cccc(CC(=O)N2CCCN(c3nc4cc(Cl)ccc4c4nnc(-c5cccc(C)c5)n34)CC2)c1,15%,-2.94
O=C(OC1CCN(c2nncc3ccccc23)CC1)c1cccnc1,-3%,0.5
COCC[C@H](NC(=O)c1c[nH]nc1-c1ccccn1)c1ccc(C)o1,-9%,1.22
